# Test results reported in the supplement of paper PMC12217912.
# Some of the results follow. Sequences were assembled here from the parent chain. Inactive controls read about 0.05.
# B1: TEV protease; numbered along this chain (parent)
# chain: MGESLFKGPRDYNPISSSICHLTNESDGHTTSLYGIGFGPFIITNKHLFRRNNGTLVVQSLHGVFKVKDTTTLQQHLVDGRDMIIIRMPKDFPPFPQKLKFREPQREERICLVTTNFQTKSMSSMVSDTSCTFPSGDGIFWKHWIQTKDGQCGSPLVSTRDGFIVGIHSASNFTNTNNYFTSVPKNFMELLTNQEAQQWVSGWRLNADSVLWGGHKVFMVKPEEPFQPVKEATQL
# Variants of: B1
# Experiment: raw area under fraction-flipped curve 0-4 h after induction (AUC4h, not background-subtracted), DNA-recorder readout of cleavage of the substrate (dimensionless); higher = more cleavage of the substrate by the protease variant
# Details: temperature: 34 °C; time window: 0-4 h after rhamnose induction
# Description: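 In vivo DNA recorder in E. coli TOP10(DE3) ΔrhaA at 34 °C. Each TEVp single-site mutant (parent TEVp 0) is paired with a single-site variant of the 7-mer TEVs (canonical ENLYFQ|S). The substrate sits between flexible linkers in a Bxb1-sfGFP-TEVs-SsrA fusion, so cleavage stabilises Bxb1 and speeds flipping of a recombination array, read by NGS. The value is the raw area under the fraction-flipped curve over 0-4 h after rhamnose induction (AUC4h), with ≥20 reads per time point. It is not background-subtracted; inactive controls average about 0.047.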
# 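Note: Bxb1 expression induced with 0.2% (w/v) L-rhamnose at OD600 near 0.5, cultures sampled hourly, flipped fraction per protease–substrate barcode pair counted by paired-end Illumina sequencing.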
Variant,area with substrate EELYFQS,area with substrate EFLYFQS,area with substrate EGLYFQS,area with substrate EHLYFQS,area with substrate EILYFQS,area with substrate EKLYFQS,area with substrate ELLYFQS,area with substrate EMLYFQS,area with substrate EPLYFQS,area with substrate ESLYFQS
MGESLFKGPRDYNPISSSICHLTNESDGHTTSLYGIGFGPFIITNKHLFRRNNGTLVVQSLHGVFKVKDTTTLQQHLVDGRDMIIIRMPKDFPPFPQKLKFREPQREERICLVTTNFQTKSMSSMVSDTSCTFPSGDGIFWKHWIQTKDGQCGSPLVSTRDGFIVGIHSASNFTNTNNYDTSVPKNFMELLTNQEAQQWVSGWRLNADSVLWGGHKVFMVKPEEPFQPVKEATQL [F180D],0.0648,0.0406,0.0477,0.0374,0.0397,0.052,0.054,0.0613,0.0545,0.0461
MGESLFKGPRDYNPISSSICHLTNESDGHTTSLYGIGFGPFIITNKHLFRRNNGTLVVQSLHGVFKVKDTTTLQQHLVDGRDMIIIRMPKDFPPFPQKLKFREPQREERICLVTTNFQTKSMSSMVSDTSCTFPSGDGIFWKHWIQTKDGQCGSPLVSTRDGFIVGIHSASNFTNTNNYFTSVPKKFMELLTNQEAQQWVSGWRLNADSVLWGGHKVFMVKPEEPFQPVKEATQL [N186K],0.114,–,–,0.0989,0.0956,0.0707,–,0.108,–,0.103
MGESLFKGPRDYNPISSSICHLTNESDGHTTSLYGIGFGPFIITNKHLFRRNNGTLVVQSLHGVFKVKDTTTLQQHLVDGRDMIIIRMPKDFPPFPQKLKFREPQREERICLVTTNFQTKSMSSMVSDTSCTFPSGDGIFWKHWIQTKDGQCGSPLVSTRDGFIVGIHSASNFTNTNNYFTSVPKNFIELLTNQEAQQWVSGWRLNADSVLWGGHKVFMVKPEEPFQPVKEATQL [M188I],0.163,0.115,0.108,–,0.075,0.134,–,0.146,–,0.125
MGESLFKGPRDYNPISSSICHLTNESDGHTTSLYGIGFGPFIITNKHLFRRNNGTLVVQSLHGVFKVKDTTTLQQHLVDGRDMIIIRMPKDFPPFPQKLKFREPQREERICLVTTNFQTKSMSSMVSDTSCTFPSGDGIFWKHWIQTKDGQCGSPLVSTRDGFIVGIHSASNFTNTNNYFTSVPKNFMELLTNQEANQWVSGWRLNADSVLWGGHKVFMVKPEEPFQPVKEATQL [Q197N],0.123,–,0.0572,–,–,–,0.0875,0.138,–,0.0561
MGESLFKGPRDYNPISSSICHLTNESDGHTTSLYGIGFGPFIITNKHLFRRNNGTLVVQSLHGVFKVKDTTTLQQHLVDGRDMIIIRMPKDFPPFPQKLKFREPQREERICLVTTNFQTKSMSSMVSDTSCTFPSGDGIFWKHWIQTKDGQCGSPLVSTRDGFIVGIHSASNFTNTNNYFTSVPKNFMELLTNQEAQQWVSGWRLNADLVLWGGHKVFMVKPEEPFQPVKEATQL [S209L],0.0901,0.108,–,–,–,0.0574,–,–,–,0.112
MGESLFKGPRDYNPISSSICHLTNESDGHTTSLYGIGFGPFIITNKHLFRRNNGTLVVQSLHGVFKVKDTTTLQQHLVDGRDMIIIRMPKDFPPFPQKLKFREPQREERICLVTTNFQTKSMSSMVSDTSCTFPSGDGIFWKHWIQTKDGQCGSPLVSTRDGFIVGIHSASNFTNTNNYFTSVPKNFMELLTNQEAQQWVSGWRLNADSVLWNGHKVFMVKPEEPFQPVKEATQL [G213N],0.0758,–,–,–,0.11,–,0.0676,0.0722,–,0.0713
MGESLFKGPRDYNPISSSICHLTNESDGHTTSLYGIGFGPFIITNKHLFRRNNGTLVVQSLHGVFKVKDTTTLQQHLVDGRDMIIIRMPKDFPPFPQKLKFREPQREERICLVTTNFQTKSMSSMVSDTSCTFPSGDGIFWKHWIQTKDGQCGSPLVSTRDGFIVGIHSASNFTNTNNYFTSVPKNFMELLTNQEAQQWVSGWRLNADSVLWGGHKVTMVKPEEPFQPVKEATQL [F218T],0.183,–,0.0254,–,0.0828,–,–,–,–,0.0929
MGESLFKGPRDYNPISSSICHLTNESDGHTTSLYGIGFGPFIITNKHLFRRNNGTLVVQSLHGVFKVKDTTTLQQHLVDGRDMIIIRMPKDFPPFPQKLKFREPQREERICLVTTNFQTKSMSSMVSDTSCTFPSGDGIFWKHWIQTKDGQCGSPLVSTRDGFIVGIHSASNFTNTNNYFTSVPKNFMELLTNQEAQQWVSGWRLNADSVLWGGHKVFMVKREEPFQPVKEATQL [P222R],0.127,0.1,0.069,–,0.0601,–,–,0.0832,–,0.0874
MGESLFKGPRDYNPISSSICHLTNESDGHTTSLYGIGFGPFIITNKHLFRRNNGTLVVQSLHGVFKVKDTTTLQQHLVDGRDMIIIRMPKDFPPFPQKLKFREPQREERICLVTTNFQTKSMSSMVSDTSCTFPSGDGIFWKHWIQTKDGQCGSPLVSTRDGFIVGIHSASNFTNTNNYFTSVPKNFMELLTNQEAQQWVSGWRLNADSVLWGGHKVFMVKPEEPFQDVKEATQL [P228D],0.108,0.106,–,–,–,0.0907,0.101,0.0948,–,0.115

# Same assay, conditions: temperature: 34 °C; time window: 0-4 h after rhamnose induction
Variant,area with substrate EWLYFQS,area with substrate EYLYFQS,area with substrate EQLYFQS,area with substrate ERLYFQS,area with substrate EVLYFQS,area with substrate ETLYFQS
MGESLFKGPRDYNPISSSICHLTNESDGHTTSLYGIGFGPFIITNKHLFRRNNGTLVVQSLHGVFKVKDTTTLQQHLVDGRDMIIIRMPKDFPPFPQKLKFREPQREERICLVTTNFQTKSMSSMVSDTSCTFPSGDGIFWKHWIQTKDGQCGSPLVSTRDGFIVGIHSASNFTNTNNYDTSVPKNFMELLTNQEAQQWVSGWRLNADSVLWGGHKVFMVKPEEPFQPVKEATQL [F180D],0.0494,0.0433,–,–,–,–
MGESLFKGPRDYNPISSSICHLTNESDGHTTSLYGIGFGPFIITNKHLFRRNNGTLVVQSLHGVFKVKDTTTLQQHLVDGRDMIIIRMPKDFPPFPQKLKFREPQREERICLVTTNFQTKSMSSMVSDTSCTFPSGDGIFWKHWIQTKDGQCGSPLVSTRDGFIVGIHSASNFTNTNNYFTSVPKKFMELLTNQEAQQWVSGWRLNADSVLWGGHKVFMVKPEEPFQPVKEATQL [N186K],–,–,0.127,0.0621,0.108,–
MGESLFKGPRDYNPISSSICHLTNESDGHTTSLYGIGFGPFIITNKHLFRRNNGTLVVQSLHGVFKVKDTTTLQQHLVDGRDMIIIRMPKDFPPFPQKLKFREPQREERICLVTTNFQTKSMSSMVSDTSCTFPSGDGIFWKHWIQTKDGQCGSPLVSTRDGFIVGIHSASNFTNTNNYFTSVPKNFIELLTNQEAQQWVSGWRLNADSVLWGGHKVFMVKPEEPFQPVKEATQL [M188I],0.0993,0.206,0.116,–,0.0853,0.13
MGESLFKGPRDYNPISSSICHLTNESDGHTTSLYGIGFGPFIITNKHLFRRNNGTLVVQSLHGVFKVKDTTTLQQHLVDGRDMIIIRMPKDFPPFPQKLKFREPQREERICLVTTNFQTKSMSSMVSDTSCTFPSGDGIFWKHWIQTKDGQCGSPLVSTRDGFIVGIHSASNFTNTNNYFTSVPKNFMELLTNQEANQWVSGWRLNADSVLWGGHKVFMVKPEEPFQPVKEATQL [Q197N],0.11,0.0715,0.0673,–,–,–
MGESLFKGPRDYNPISSSICHLTNESDGHTTSLYGIGFGPFIITNKHLFRRNNGTLVVQSLHGVFKVKDTTTLQQHLVDGRDMIIIRMPKDFPPFPQKLKFREPQREERICLVTTNFQTKSMSSMVSDTSCTFPSGDGIFWKHWIQTKDGQCGSPLVSTRDGFIVGIHSASNFTNTNNYFTSVPKNFMELLTNQEAQQWVSGWRLNADLVLWGGHKVFMVKPEEPFQPVKEATQL [S209L],–,–,0.117,0.0901,0.0914,–
MGESLFKGPRDYNPISSSICHLTNESDGHTTSLYGIGFGPFIITNKHLFRRNNGTLVVQSLHGVFKVKDTTTLQQHLVDGRDMIIIRMPKDFPPFPQKLKFREPQREERICLVTTNFQTKSMSSMVSDTSCTFPSGDGIFWKHWIQTKDGQCGSPLVSTRDGFIVGIHSASNFTNTNNYFTSVPKNFMELLTNQEAQQWVSGWRLNADSVLWGGHKVTMVKPEEPFQPVKEATQL [F218T],–,–,0.0806,–,0.098,0.109
MGESLFKGPRDYNPISSSICHLTNESDGHTTSLYGIGFGPFIITNKHLFRRNNGTLVVQSLHGVFKVKDTTTLQQHLVDGRDMIIIRMPKDFPPFPQKLKFREPQREERICLVTTNFQTKSMSSMVSDTSCTFPSGDGIFWKHWIQTKDGQCGSPLVSTRDGFIVGIHSASNFTNTNNYFTSVPKNFMELLTNQEAQQWVSGWRLNADSVLWGGHKVFMVKREEPFQPVKEATQL [P222R],–,0.105,0.0933,0.0825,0.0674,–
MGESLFKGPRDYNPISSSICHLTNESDGHTTSLYGIGFGPFIITNKHLFRRNNGTLVVQSLHGVFKVKDTTTLQQHLVDGRDMIIIRMPKDFPPFPQKLKFREPQREERICLVTTNFQTKSMSSMVSDTSCTFPSGDGIFWKHWIQTKDGQCGSPLVSTRDGFIVGIHSASNFTNTNNYFTSVPKNFMELLTNQEAQQWVSGWRLNADSVLWGGHKVFMVKPEEPFQDVKEATQL [P228D],–,–,–,–,0.117,–
